According to PMC6919601, “Identification of Plasmodium dipeptidyl aminopeptidase allosteric inhibitors by high throughput screening” (PLoS ONE, 2019):
Screen size: about 110,000 compounds; about 230 (0.21%) showed an effect of 50% or more. This is one part of the list.

biological target: DPAP1 (Plasmodium falciparum, UniProt Q8IIJ9); test: primary screen, percent inhibition; read by cleavage of a fluorogenic dipeptide substrate; higher = more effect of the substance; parameters: species or system P. falciparum D10 trophozoite lysates; single well
Sequence (Q8IIJ9 whole entry, looked up): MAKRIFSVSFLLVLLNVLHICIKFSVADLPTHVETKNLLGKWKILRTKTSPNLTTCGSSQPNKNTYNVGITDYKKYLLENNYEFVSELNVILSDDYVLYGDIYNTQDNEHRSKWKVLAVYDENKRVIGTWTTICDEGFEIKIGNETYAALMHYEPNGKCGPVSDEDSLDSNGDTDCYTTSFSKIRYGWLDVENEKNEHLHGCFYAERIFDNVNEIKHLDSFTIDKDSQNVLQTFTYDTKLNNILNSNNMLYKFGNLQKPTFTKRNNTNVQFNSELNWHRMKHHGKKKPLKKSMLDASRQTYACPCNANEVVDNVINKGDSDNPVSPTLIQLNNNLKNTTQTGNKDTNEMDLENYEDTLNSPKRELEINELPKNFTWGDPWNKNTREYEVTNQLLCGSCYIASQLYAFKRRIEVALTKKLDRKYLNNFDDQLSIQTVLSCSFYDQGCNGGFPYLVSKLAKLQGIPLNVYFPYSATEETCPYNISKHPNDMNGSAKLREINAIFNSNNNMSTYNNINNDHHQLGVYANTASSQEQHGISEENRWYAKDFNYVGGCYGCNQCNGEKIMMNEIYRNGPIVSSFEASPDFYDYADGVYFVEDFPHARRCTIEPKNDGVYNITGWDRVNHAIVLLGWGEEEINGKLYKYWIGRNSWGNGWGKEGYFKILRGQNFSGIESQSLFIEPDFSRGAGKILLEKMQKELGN
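Further: 30 min substrate incubation versus DMSO and 10 µM JCP410 controls.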

Row | Structure (SMILES) | % Inhibition @ 10 uM [%]
1 | O=C(Nc1ccc(Nc2ccccc2)cc1)c1ccc(Br)o1 | -3.33
2 | NC(=O)C1CCCN(Cc2ccc(F)c(F)c2)C1 (centres unmarked) | -3.27
3 | Clc1ccccc1CN1CCC(N2CCCCC2)CC1 | 1.26
4 | O=C1c2cccnc2C(=O)N1Cc1ccc(F)cc1S(=O)(=O)NCc1ccccc1Cl | -2.19
5 | CC1=C(c2ccc(C)cc2)S(=O)(=O)N=C1N(C)Cc1ccccc1 | 2.27
6 | COc1ccc(C(=O)Nc2nc3c(C)cccc3s2)cc1 | -6.67
7 | Cc1csc(Sc2nc3c(c(=O)[nH]c(=O)n3C)n2Cc2ccccc2Cl)n1 | -8.39
8 | COc1ccc(CN2CCN(CCO)CC2)cc1Br | 3.47
9 | COc1ccc2cc(S(=O)(=O)c3ccc(C)c(C)c3)c(=O)oc2c1 | 5.32
10 | COc1ccc2nc(NC(=O)c3c(OC)cccc3OC)sc2c1 | 0.9
11 | O=C1c2cccnc2C(=O)N1CCc1ccc(S(=O)(=O)N2CCN(C3CCCCC3)CC2)cc1 | -2.13
12 | COc1ccc(CNCCC(c2ccccc2)c2ccco2)cc1OC (centres unmarked) | 3.59
13 | COc1ccccc1C(=O)N1CCN(c2nnc(-c3ccccc3)c3ccccc23)CC1 | -5.1
14 | Clc1cccc(N2CCN(Cc3c(Cl)cccc3Cl)CC2)c1 | 2.99
15 | COc1ccc(CCNC(=O)CCc2c(C)c3cc4c(C)coc4cc3oc2=O)cc1OC | 3.94
16 | CN1CCN(c2nc3c(c(=O)n(C)c(=O)n3C)n2Cc2ccccc2Cl)CC1 | 1.39
17 | CC1CCCC(NC(=O)Cn2cc3c(n2)CCCC3)C1C (centres unmarked) | 3.4
18 | CCCn1c(C(O)c2ccc(OC)c(OC)c2)nc2ccccc21 (centres unmarked) | 7.13
19 | COc1ccc(N2CN=C3SCC(=O)N3C2)cc1 | -0.274
20 | CS(=O)(=O)N(Cc1ccccc1)Cc1ccccc1 | 1.4
21 | COc1cccc2c1cc1c(=O)n(CC(=O)NCCC3=CCCCC3)nc(C)n12 | -3.47
22 | CN(CCN1CCOCC1)C1CCN(C(=O)CNC(=O)/C=C/c2cccc(C(F)(F)F)c2)CC1 | -4.71

Row | Structure (SMILES) | % Inhibition @ 10 uM [%]
23 | COc1ccc(S(=O)(=O)N(C)CC(=O)Nc2ccc(Cl)cc2C)cc1 | -0.171
24 | CCOc1ccc(C(=O)Nc2ccc(S(=O)(=O)N3CCC(C)CC3)cc2)cc1 | -4.69
25 | COc1ccccc1C(CC(=O)NC1CCOC(C)(C)C1)c1ccc(OC(C)C)cc1 (centres unmarked) | -5.08
26 | COCCNC(=O)c1nc(-c2ccc(Cl)cc2)n2c1CCCCC2 | 5.7
27 | CCOC(=O)c1c(NC(=O)/C=C/c2ccc(C(C)C)cc2)sc2c1CCCC2 | 6.08
28 | COc1cccc(NC(=O)Nc2cccc3ccccc23)c1 | -4.05
29 | COC(=O)c1ccc(-c2cc(C(=O)O)c3cc4c(cc3n2)OCCO4)cc1 | -2.24
30 | COc1ccc(/C=C2/NC(=O)N(Cc3ccccc3)C2=O)cc1Br | -0.312
31 | COCCN1CC23C=CC(O2)C(C(=O)O)C3C1=O (centres unmarked) | 2.39
32 | COCCNc1ncc(Br)nc1Br | -4.93
33 | CS(=O)(=O)N(CC(=O)Nc1ccc2c(c1)OCCO2)C1CCCCC1 | -2.32
34 | Cc1nc2ccc(NC(=O)Nc3ccc4ccccc4c3)cc2s1 | -1.98
35 | O=C(O)CN(CC(=O)O)c1ccccc1 | 2.31
36 | CN(Cc1ccccc1)C(=O)C(C(=O)c1ccc(F)cc1)n1cc(Cl)ccc1=O (centres unmarked) | -2.91
37 | COc1ccc(C(=O)NCc2ccccc2OC)cc1 | -1.48
38 | CCN1CCN(C(=O)CS(=O)(=O)Cc2nc(-c3ccc(C)cc3)oc2C)CC1 | -3.7
39 | COc1cc(C(C)(C)C)cc(Br)c1O | 0.878
40 | COc1ccc(NC(=O)C2=C(C)NC(=O)NC2c2cccs2)c(OC)c1 (centres unmarked) | -4.67
41 | Oc1cc(C(F)(F)F)nc2c(-c3ccc(Cl)cc3)cnn12 | -9.17
42 | CC(=O)Nc1ccc(N/C=C2/CCCCC2=O)cc1 | -2.77
43 | COc1ccc([C@H]2NCC[C@@]3(O)CCCC[C@H]23)c(OC)c1 | -11.5
44 | COc1ccc(CCNC(=O)COc2ccc3c(=O)c(-c4ccccc4)coc3c2)cc1OC | 3.27

Row | Structure (SMILES) | % Inhibition @ 10 uM [%]
45 | CSc1ccc(CN2CCN(C/C=C/c3ccccc3)CC2)cc1 | 0.501
46 | Clc1ccc(C2CC(c3ccc(-c4ccccc4)cc3)Nc3nnnn32)cc1 (centres unmarked) | -7.08
47 | N#C/C(=C\Nc1ccccc1)c1nc(-c2cc3cc(Br)ccc3oc2=O)cs1 | -5.26
48 | COc1ccc2c(c1)c1nc(SCc3cccnc3)n(CCO)c(=O)c1n2C | 4.95
49 | CC1Cc2nn(-c3ccccc3)c(-c3ccc(O)cc3)c2C(=O)C1C (centres unmarked) | -0.703
50 | CCc1ccc(OCC(O)CNC(C)C)cc1 (centres unmarked) | 4.08
51 | Cc1ccc(S(=O)(=O)Oc2ccc(-c3cnc4ccccc4n3)cc2)cc1 | 0.986
52 | COCCn1c(CN2CCOCC2)nc2c1c(=O)n(C)c(=O)n2C | -1.43
53 | N#C/C(=C(/O)c1ccc(Cl)cc1Cl)c1nc2ccccc2[nH]1 | -5.7
54 | CCOC(=O)c1sc2nc(-c3cccnc3)ccc2c1N | -2.2
55 | O=C1Nc2ccccc2C(O)(C(=O)N2CCOCC2)N1c1cccc(C(F)(F)F)c1 (centres unmarked) | -1.36
56 | COc1cc(OC)c(OC)cc1/C=C1\N=C(c2cccc(Cl)c2Cl)OC1=O | -11
57 | CC1CCCCN1C(=O)c1ccc(CNS(=O)(=O)c2cccc(C(F)(F)F)c2)cc1 (centres unmarked) | -1.57
58 | COc1cccc(OCc2ccc(C(=O)NCC3CCCO3)cc2)c1 (centres unmarked) | 2.92
59 | O=C(Nc1cccc(C(F)(F)F)c1)c1cccc(Br)c1 | 1.63
60 | COc1ccc(NC(=O)C(c2ccccc2)c2ccccc2)cc1 | -7.6
61 | O=C(Nc1ccc(Cl)cc1)Nc1ccc(F)c(F)c1 | -4.57
62 | CCOc1ccc2c(c1)nc(NCCO)n2CC | -5.48
63 | CN(C)CCn1c(SCc2ccccc2C#N)nc2c(sc3ccccc32)c1=O | 9.6
64 | CC1CCN(C(=O)c2ccc(Cl)c(Cl)c2)CC1 | 1.38
65 | CCc1ccccc1NS(=O)(=O)c1ccc(OC)cc1 | -3.44
